The campaign covered roughly 46,000 compounds. About 60 (0.1%) were called active. About 3% were inconclusive and are not listed. Calls come from the whole dose curve; as a rule, active = well fitted inhibition curve with a large enough effect; inconclusive = small, poorly fitted or top-dose-only effect; inactive = no such curve, though single readings can be large or run the other way. This is one part of the list.
Assay: Primary qHTS assay for Inhibitors of ovarian cancer metastasis using an organotypic tumor microenvironment (TME) model.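 For activity change, negative = inhibition: plate controls were DMSO wells for no effect and tomatine positive control wells for full effect.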 Note: nearly all actives have a fitted effect of over 65% in size.
Details: SKOV3ip1-GFP adhesion/invasion on 3D omental model, fluorescence; series mostly up to 45.8 µM; activity change, negative = inhibition: at the top concentration
Outline: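 qHTS, 4-pt dose (0.36-46 umol/L); SKOV3ip1-GFP, 1,200 cells/well, no FBS; primary omental fibroblast/mesothelial co-culture 48 h pre-grown; 2 h RT + 16 h 37 C; PBS wash, 4% PFA; GFP count 488/509 nm.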

| SMILES | activity change, negative = inhibition | outcome |
| --- | --- | --- |
| COc1cccc(CNC(=O)C2CCN(S(=O)(=O)c3ccc4c(c3)CCCN4C(C)=O)CC2)c1 | inactive: -24.6% | – |
| Cc1ccc2c(c1)N(CCCC(=O)Nc1cccc(C(F)(F)F)c1)C(=O)CO2 | inactive: 15.6% | – |
| CCOC(=O)c1[nH]c2ccccc2c1NC(=O)c1ccc(Br)cc1 | inactive: -11.7% | – |
| Cc1ccc(-c2cc(C(=O)NCc3ccccc3Cl)c3ccccc3n2)cc1C | inactive: 5.14% | – |
| COc1ccc2cc3c(N)nn(C(=O)c4ccc(OC)c(OC)c4)c3nc2c1 | inactive: 1.81% | – |
| O=C(Nc1ccccc1C(F)(F)F)n1ncc2cc(Cl)ccc21 | inactive: 4.96% | – |
| CCCCN1C(=O)C(O)(CC(=O)c2ccc(C(C)(C)C)cc2)c2ccccc21 (stereo not given) | inactive: -12.4% | – |
| CCOc1ccc(-c2nc3c(c(SCC(=O)N4CCCCC4)n2)Cc2cccc(OC)c2O3)cc1 | inactive: 8.95% | – |
| Cc1ccc2nc3c(cc(C#N)c(=O)n3-c3nnc(SCc4ccccc4)s3)c(=O)n2c1 | inactive: 3.66% | – |
| COc1cc(NC(=O)Cn2cc(C(=O)c3ccc(F)cc3)c(=O)c3ccc(C)nc32)cc(OC)c1 | inactive: -25.3% | – |
| CCOc1ccc(NC(=O)c2ncoc2-c2ccco2)cc1 | inactive: -3.62% | – |
| Cc1cccc(CSc2ncc(Cl)c(C(=O)Nc3nc4ccc(F)cc4s3)n2)c1 | – | inactive |
| CCCn1c2ccccc2c2cnn(CC(=O)N3CCN(c4ccccc4)CC3)c(=O)c21 | – | inactive |
| CC(C)NC(=O)c1ccc(NC(=O)N2CCCCc3ccccc32)cc1 | – | inactive |
| O=C(Cn1c(=O)nc(-c2ccccc2)c2cc(Cl)ccc21)Nc1ccc(F)c(Cl)c1 | inactive: -1.77% | – |
| CC(=O)c1sc(N2C(=O)c3oc4ccccc4c(=O)c3C2c2ccc(C)cc2)nc1C (stereo not given) | inactive: -9.88% | – |
| CC(=O)c1ccc(NC(=O)Cn2nc(N3CCN(c4ccccc4)CC3)ccc2=O)cc1 | inactive: -0.471% | – |
| COc1ccccc1OC(C)C(=O)Nc1cccc(-c2nc3ccccc3o2)c1 (stereo not given) | inactive: -0.75% | – |
| CCCn1c2ccccc2c2nnc(SCC(=O)Nc3cccc(C(C)=O)c3)nc21 | inactive: 1.35% | – |
| Cc1ccc(NC(=O)c2cnn3c2NC(c2ccccc2)=CC3c2ccccc2)cc1 (stereo not given) | inactive: -24.8% | – |
| CCC(Sc1nnc(C)n2c1cc1occc12)C(=O)Nc1ccccc1OC (stereo not given) | inactive: -1.82% | – |
| CCN(Cc1ccccc1)C(=O)c1cnn(-c2ccc(F)cc2)c1-n1cccc1 | – | inactive |
| Cc1coc2c1C(=O)C(=O)c1c-2ccc2c(C)cccc12 | inactive: 0.546% | – |
| Cc1ccc(Cl)cc1N1CCN(S(=O)(=O)c2ccc3c(c2)CCN3C(=O)C2CCC2)CC1 | – | inactive |

| SMILES | activity change, negative = inhibition | outcome |
| --- | --- | --- |
| CCc1ccc(NS(=O)(=O)c2ccc3[nH]cc(C(=O)NCCCOC(C)C)c(=O)c3c2)cc1 | inactive: 2.76% | – |
| COc1ccccc1CNC(=O)CSC1=Nc2ccccc2N=C(c2ccc(F)cc2)C1 | – | inactive |
| CCCSc1nc2c([nH]c3ccccc32)c(=O)n1C | inactive: -0.334% | – |
| O=C(NCc1cccnc1)c1nn(-c2ccc(F)cc2)nc1CO | – | inactive |
| CN1C(C(=O)Nc2ccc(OC(F)(F)F)cc2)=CC(c2cccs2)=NS1(=O)=O | inactive: -25.7% | – |
| CCSc1nc2n(n1)C(c1ccc(C(=O)O)cc1)C(C(=O)Nc1ccccc1C)=C(C)N2 (stereo not given) | – | inactive |
| Cc1ccc(N(CC(=O)Nc2ccc(Cl)cc2)S(=O)(=O)c2cccc3nonc23)cc1 | – | inactive |
| COc1cccc(NC(=O)Cn2c(=O)n(Cc3ccccc3)c(=O)c3ccccc32)c1 | inactive: 12.5% | – |
| CCOc1cc(CNC(=O)CN2CCSc3ccccc32)cc(OCC)c1OCC | inactive: 36.1% | – |
| O=C(Nc1ccccc1Cl)c1sc2cccc(Cl)c2c1Cl | inactive: 39.3% | – |
| COc1ccc(NC(=O)c2oc3ccccc3c2NC(=O)COc2ccc(C(C)C)cc2)c(OC)c1 | inactive: -22.8% | – |
| O=C(COc1ccccc1)Nc1ccc2nc(SCC(=O)N3CCOCC3)sc2c1 | – | inactive |
| CCOC(=O)c1c(NC(=O)c2ccc(OC)cc2)sc2c1CCCCC2 | inactive: -2.92% | – |
| COc1ccc(-n2c(=O)[nH]c3cc(C(=O)NCCc4ccccc4)ccc3c2=O)cc1OC | inactive: 7.79% | – |
| CCCS(=O)(=O)c1nc(S(=O)(=O)c2ccc(C)cc2)c(NC)s1 | inactive: -2.4% | – |
| Cc1ccc(-n2ncc(C(=O)N3CCCCC3)c2C2CCN(C(=O)OC(C)(C)C)CC2)c(C)c1 | inactive: 0.841% | – |
| CN(C)c1ccc(CNC(=O)Cn2c(=O)oc3cc(S(=O)(=O)N4CCCCCC4)ccc32)cc1 | inactive: -1.11% | – |
| Cc1ccc(NC(=O)Cc2coc3ccc(C(C)C)cc23)cc1Cl | inactive: -21.1% | – |
| COc1ccc(-c2nc3c(c(SCC(=O)N4CCCCC4)n2)Cc2cc(Cl)ccc2O3)cc1 | inactive: -12.5% | – |
| COC(=O)c1sccc1S(=O)(=O)N(CC(=O)NCc1ccc(C)cc1)c1ccc(C)cc1 | inactive: 4.29% | – |
| Fc1ccc(-c2nc(Nc3cccc(C(F)(F)F)c3)nc3c2COc2ccccc2-3)cc1 | inactive: -7.46% | – |
| COc1cc(Nc2nc3ccccc3nc2NS(=O)(=O)c2ccc(NC(=O)c3ccc(C)c(OC)c3)cc2)cc(OC)c1 | inactive: 6.33% | – |
| Cc1ccccc1-n1c(Cn2nc(-c3cccc(O)c3)c3c(N)ncnc32)nc2cccc(C)c2c1=O | inactive: 6.43% | – |
| COc1ccc(-n2c(SCC(=O)NCc3ccc(C)cc3)nc3n[nH]c(C)c3c2=N)cc1 | inactive: 8.37% | – |

| SMILES | activity change, negative = inhibition | outcome |
| --- | --- | --- |
| O=C(CCC1N=C2c3ccccc3N=C(SCc3ccc(Cl)cc3)N2C1=O)N1CCN(c2ccccc2)CC1 (stereo not given) | inactive: 4.13% | – |
| COc1ccc(C2C=C(c3ccc(Cl)c(Cl)c3)Nc3ncnn32)cc1 (stereo not given) | inactive: 4.23% | – |
| COc1ccc(N2CCN(CCCNC(=O)Nc3ccccc3)CC2)cc1 | – | inactive |
| COc1cc(OC)c(NS(=O)(=O)c2ccc3oc(=O)c4ncn(C)c4c3c2)cc1Cl | inactive: 1.66% | – |
| O=C(CSc1nnc(-c2ccc(F)cc2)o1)N1CCCc2ccccc21 | inactive: -5.8% | – |
| Cc1ccc(CSc2nnc3[nH]c(=O)cc(-c4ccccc4)n23)cc1 | inactive: -20.2% | – |
| CC(C)(C)c1ccc(OCc2nnc(-c3ccccc3)o2)cc1 | inactive: 1.76% | – |
| CCOC(=O)C1=C(CN2CCN(c3cccc(Cl)c3)CC2)NC(=O)NC1c1ccc(Cl)cc1 (stereo not given) | – | inactive |
| CCn1cc(C(=O)NCc2ccc(Cl)cc2)c(=O)c2cc(S(=O)(=O)N(C)C3CCCCC3)ccc21 | inactive: 1.45% | – |
| O=C(Cn1ncc2c3ccccc3n(Cc3ccc(F)cc3)c2c1=O)NCc1cccs1 | inactive: 13.3% | – |
| Fc1ccc(C2=CC(c3ccc(F)cc3)n3c(nc4ccccc43)N2)cc1 (stereo not given) | – | inactive |
| Cc1cc(-n2c(C)nc3ccccc3c2=O)ccc1NC(=O)C(F)(F)F | – | inactive |
| CC(CNC(=O)c1ccc2nc(Cc3ccccc3)oc2c1)c1ccccc1 (stereo not given) | inactive: 4.31% | – |
| CCN(Cc1ccccc1)S(=O)(=O)c1ccc(-c2coc(C)n2)cc1 | – | inactive |
| COc1ccc(-c2nc(CSCC(=O)N3CCN(c4ccc(F)cc4)CC3)c(C)o2)cc1 | – | inactive |
| COc1ccc(S(=O)(=O)NCCSc2nnnn2-c2ccccc2)cc1 | – | inactive |
| COc1ccc(NC(=O)CCCn2nc(C)c3sc4ccccc4c3c2=O)cc1 | inactive: -6.65% | – |
| Cc1cc(C(=O)Nc2ccc(-n3c(C)nc4ccccc4c3=O)cc2)ccc1[N+](=O)[O-] | inactive: -6.16% | – |
| COc1ccc(NS(=O)(=O)c2ccc3nc(-c4ccccc4)[nH]c3c2)cc1 | – | inactive |
| CCC(C)Nc1ncnc2c1cnn2-c1ccc(F)cc1 (stereo not given) | inactive: -2.65% | – |
| CC1CCCN(S(=O)(=O)c2ccc3c(c2)CCN3C(=O)CCC(=O)O)C1 (stereo not given) | inactive: 14.5% | – |
| Cc1cccc(Cc2c(C)nc3c(-c4ccccc4)c(C)[nH]n3c2=O)c1 | inactive: 64.8% | – |
| O=C(CC1C(=O)N(c2ccc(F)cc2)C(=O)N1Cc1ccc2c(c1)OCO2)Nc1ccc(Cl)cc1 (stereo not given) | inactive: 0.94% | – |
| Cc1ccc(-n2cc(C(=O)Oc3ccc(F)cc3)c3ccccc3c2=O)cc1 | inactive: 10.3% | – |

| SMILES | activity change, negative = inhibition | outcome |
| --- | --- | --- |
| O=C(CSc1oc(-c2ccccc2)nc1S(=O)(=O)c1ccc(Cl)cc1)c1ccccc1 | inactive: 3.51% | – |
| Cc1ccc2c(=O)cc(C(=O)Nc3ccc(S(=O)(=O)Nc4onc(C)c4C)cc3)oc2c1C | inactive: 0.323% | – |
| Cc1cc(C)nc(-n2nc(C)c3c2N(Cc2ccccc2)C(=O)CC3c2ccc(Cl)cc2)n1 (stereo not given) | inactive: 5.37% | – |
| Cc1[nH]c(C=C2C(=O)Nc3ccc(S(=O)(=O)N(C)c4cccc(Cl)c4)cc32)c(C)c1C(=O)N1CCN(C)CC1 | inactive: 12.9% | – |
| CCC(=O)N1c2ccccc2CC1C(=O)NCc1cc(OC)ccc1OC (stereo not given) | inactive: 8.01% | – |
| O=C(CCn1c(=O)c2cccn2c2cccnc21)Nc1ccccc1C(F)(F)F | inactive: -8% | – |
| Cc1cc(C)cc(OCC(=O)Nc2c(C(=O)c3ccccc3)oc3ccccc23)c1 | inactive: 2.11% | – |
| Cc1c(Cl)cccc1NS(=O)(=O)c1ccc(-c2cnc(C3CC3)o2)cc1 | – | inactive |
| CCN(C(=O)Cn1c(=O)n(-c2ccccc2)c(=O)c2ccc(C(=O)NCc3ccc4c(c3)OCO4)cc21)c1cccc(C)c1 | inactive: -28.9% | – |
| CCOc1ccc(NC(=O)c2cc(S(=O)(=O)N3CCc4ccccc43)ccc2F)cc1 | – | inactive |
| CCCCn1cnc2cc(NCc3ccc(OCC)cc3)ccc21 | inactive: -2.53% | – |
| CC(C)c1ccc(NC(=O)c2cc(S(=O)(=O)N(C)C3CCCCC3)ccc2F)cc1 | inactive: 2.16% | – |
| CCOc1ccc(CNC(=O)C2CCCCN2S(=O)(=O)c2ccc(F)cc2)cc1OC (stereo not given) | inactive: 0.985% | – |
| O=C(c1ccc2c(c1)N(Cc1ccccc1F)C(=O)c1ccccc1S2(=O)=O)N1CCN(c2ccccn2)CC1 | – | inactive |
| CCn1cc(S(=O)(=O)c2cccc(C)c2)c(=O)c2cc(F)c(N3CCCC(C)C3)cc21 (stereo not given) | inactive: 7.04% | – |
| O=C(CCC(=O)c1ccc(F)cc1)Nc1ccc(Cl)cc1 | inactive: -4.37% | – |
| NS(=O)(=O)c1ccc(Nc2nc(OCC3CCCCC3)c3[nH]cnc3n2)cc1 | inactive: 41.1% | – |
| O=C(CSc1n[nH]c(-c2ccccc2Cl)n1)NCc1ccc(F)cc1 | – | inactive |
| Cc1ccccc1NC(=O)c1c(C)oc2ccc(O)c(CN3CCOCC3)c12 | – | inactive |
| CCn1c(=O)c2cc(C(=O)NCCCN3CCN(C)CC3)sc2c2ccccc21 | inactive: -8.43% | – |
| COc1ccc(-c2nc3c(c(SC)n2)Cc2c(CO)cnc(C)c2O3)cc1 | inactive: 10% | – |
| CCOc1ccc(NC(=O)CSC2=Nc3ccccc3C3=NC(CCC(=O)NCc4ccco4)C(=O)N23)cc1 (stereo not given) | inactive: -13.1% | – |
| Cc1ccc(Cl)cc1N1CCN(C(=O)Cn2ncc3c4ccccc4n(C)c3c2=O)CC1 | inactive: -1.44% | – |

Reference: PubChem BioAssay AID1963576 (National Center for Advancing Translational Sciences (NCATS), 2024)
